Test results from the supplement of paper PMC8728848.
The other results are listed elsewhere or left out.

How the values were obtained:
Assay in all cases: glycan array binding signal (z-score within array); higher = stronger binding
Conditions in all cases: glycan notation: IUPAC condensed, linker removed
[1] = target: Man(a1-2)Man(a1-6)[Man(a1-3)]Man(a1-6)[Man(a1-2)Man(a1-2)Man(a1-3)]Man(b1-4)GlcNAc(b1-4)GlcNAc
Method in brief: (§1)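 Glycan array data were curated from 3228 arrays in the Consortium for Functional Glycomics database and kept only where the protein sequence was available. Glycan names were converted to IUPAC-condensed notation, and columns mapping to the same glycan were averaged. The binding signal is a within-array Z-score, averaged across arrays of the same protein sequence at different concentrations or buffers and across linkers. Negative Z-scores can be read as non-binding.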

Man(a1-3)[Man(a1-6)]Man = target: Man(a1-3)[Man(a1-6)]Man
Method in brief: as §1

[2] = target: Man(a1-3)[Man(a1-6)]Man(a1-6)[Man(a1-2)Man(a1-3)]Man(b1-4)GlcNAc(b1-4)GlcNAc
Method in brief: as §1

[3] = target: Man(a1-3)[Man(a1-6)]Man(a1-6)[Man(a1-3)]Man
Method in brief: as §1

[4] = target: Man(a1-3)[Man(a1-6)]Man(a1-6)[Man(a1-3)]Man(b1-4)GlcNAc(b1-4)GlcNAc
Method in brief: as §1

[5] = target: Man(a1-3)[Man(a1-6)]Man(b1-4)GlcNAc(b1-4)GlcNAc
Method in brief: as §1

[6] = target: Man(a1-3)[Man(a1-6)]Man(b1-4)GlcNAc(b1-4)[Fuc(a1-6)]GlcNAc
Method in brief: as §1

Man(a1-6)Man = target: Man(a1-6)Man
Method in brief: as §1

Man(b1-4)GlcNAc = target: Man(b1-4)GlcNAc
Method in brief: as §1

MurNAc(b1-4)GlcNAc = target: MurNAc(b1-4)GlcNAc
Method in brief: as §1

Neu5Ac(a2-3)Gal = target: Neu5Ac(a2-3)Gal
Method in brief: as §1

[7] = target: Neu5Ac(a2-3)Gal(b1-3)GalNAc
Method in brief: as §1

[8] = target: Neu5Ac(a2-3)Gal(b1-3)GalNAc(b1-3)Gal(a1-4)Gal(b1-4)Glc
Method in brief: as §1

[9] = target: Neu5Ac(a2-3)Gal(b1-3)GalNAc(b1-3)Gal(b1-4)GlcNAc
Method in brief: as §1

[10] = target: Neu5Ac(a2-3)Gal(b1-3)GalNAc(b1-4)[Neu5Ac(a2-3)]Gal(b1-4)Glc
Method in brief: as §1

[11] = target: Neu5Ac(a2-3)Gal(b1-3)GalNAc(b1-4)[Neu5Ac(a2-8)Neu5Ac(a2-3)]Gal(b1-4)Glc
Method in brief: as §1

[12] = target: Neu5Ac(a2-3)Gal(b1-3)GalNAc6S
Method in brief: as §1

[13] = target: Neu5Ac(a2-3)Gal(b1-3)GlcNAc
Method in brief: as §1

[14] = target: Neu5Ac(a2-3)Gal(b1-3)GlcNAc(b1-2)Man
Method in brief: as §1

[15] = target: Neu5Ac(a2-3)Gal(b1-3)GlcNAc(b1-2)Man(a1-3)[GlcNAc(b1-4)][Neu5Ac(a2-3)Gal(b1-3)GlcNAc(b1-2)Man(a1-6)]Man(b1-4)GlcNAc(b1-4)GlcNAc
Method in brief: as §1

[16] = target: Neu5Ac(a2-3)Gal(b1-3)GlcNAc(b1-2)Man(a1-3)[Neu5Ac(a2-3)Gal(b1-3)GlcNAc(b1-2)Man(a1-6)]Man(b1-4)GlcNAc(b1-4)GlcNAc
Method in brief: as §1

[17] = target: Neu5Ac(a2-3)Gal(b1-3)GlcNAc(b1-3)Gal(b1-3)GlcNAc
Method in brief: as §1

[18] = target: Neu5Ac(a2-3)Gal(b1-3)GlcNAc(b1-3)Gal(b1-4)GlcNAc
Method in brief: as §1

[19] = target: Neu5Ac(a2-3)Gal(b1-3)GlcNAc(b1-3)GalNAc
Method in brief: as §1

[20] = target: Neu5Ac(a2-3)Gal(b1-3)GlcNAc(b1-4)Gal(b1-4)Glc
Method in brief: as §1

[21] = target: Neu5Ac(a2-3)Gal(b1-3)GlcNAc(b1-6)GalNAc
Method in brief: as §1

[22] = target: Neu5Ac(a2-3)Gal(b1-3)GlcNAc6S
Method in brief: as §1

[23] = target: Neu5Ac(a2-3)Gal(b1-3)[Fuc(a1-4)]GlcNAc
Method in brief: as §1

[24] = target: Neu5Ac(a2-3)Gal(b1-3)[Fuc(a1-4)]GlcNAc(b1-3)Gal(b1-3)[Fuc(a1-4)]GlcNAc
Method in brief: as §1

[25] = target: Neu5Ac(a2-3)Gal(b1-3)[Fuc(a1-4)]GlcNAc(b1-3)Gal(b1-4)[Fuc(a1-3)]GlcNAc
Method in brief: as §1

[26] = target: Neu5Ac(a2-3)Gal(b1-3)[GlcNAc(b1-6)]GalNAc
Method in brief: as §1

[27] = target: Neu5Ac(a2-3)Gal(b1-3)[Neu5Ac(a2-3)Gal(b1-4)]GlcNAc
Method in brief: as §1

[28] = target: Neu5Ac(a2-3)Gal(b1-3)[Neu5Ac(a2-6)]GalNAc
Method in brief: as §1

[29] = target: Neu5Ac(a2-3)Gal(b1-3)[Neu5Ac(a2-6)]GlcNAc(b1-3)[Fuc(a1-3)[Gal(b1-4)]GlcNAc(b1-6)]Gal(b1-4)Glc
Method in brief: as §1

[30] = target: Neu5Ac(a2-3)Gal(b1-3)]Neu5Ac(a2-3)Gal(b1-4)]GlcNAc
Method in brief: as §1

Neu5Ac(a2-3)Gal(b1-4)Glc = target: Neu5Ac(a2-3)Gal(b1-4)Glc
Method in brief: as §1

[31] = target: Neu5Ac(a2-3)Gal(b1-4)GlcNAc
Method in brief: as §1

[32] = target: Neu5Ac(a2-3)Gal(b1-4)GlcNAc(b1-2)Man
Method in brief: as §1

[33] = target: Neu5Ac(a2-3)Gal(b1-4)GlcNAc(b1-2)Man(a1-3)[GlcNAc(b1-4)][Neu5Ac(a2-3)Gal(b1-4)GlcNAc(b1-2)Man(a1-6)]Man(b1-4)GlcNAc(b1-4)GlcNAc
Method in brief: as §1

[34] = target: Neu5Ac(a2-3)Gal(b1-4)GlcNAc(b1-2)Man(a1-3)[Neu5Ac(a2-3)Gal(b1-4)GlcNAc(b1-2)Man(a1-6)]Man(b1-4)GlcNAc(b1-4)GlcNAc
Method in brief: as §1

[35] = target: Neu5Ac(a2-3)Gal(b1-4)GlcNAc(b1-2)Man(a1-3)[Neu5Ac(a2-3)Gal(b1-4)GlcNAc(b1-2)Man(a1-6)]Man(b1-4)GlcNAc(b1-4)[Fuc(a1-6)]GlcNAc
Method in brief: as §1

[36] = target: Neu5Ac(a2-3)Gal(b1-4)GlcNAc(b1-2)Man(a1-3)[Neu5Ac(a2-6)Gal(b1-4)GlcNAc(b1-2)Man(a1-6)]Man(b1-4)GlcNAc(b1-4)GlcNAc
Method in brief: as §1

[37] = target: Neu5Ac(a2-3)Gal(b1-4)GlcNAc(b1-2)[Neu5Ac(a2-3)Gal(b1-4)GlcNAc(b1-4)]Man(a1-3)[GlcNAc(b1-4)][Neu5Ac(a2-3)Gal(b1-4)GlcNAc(b1-2)[Neu5Ac(a2-3)Gal(b1-4)GlcNAc(b1-6)]Man(a1-6)]Man(b1-4)GlcNAc(b1-4)GlcNAc
Method in brief: as §1

[38] = target: Neu5Ac(a2-3)Gal(b1-4)GlcNAc(b1-2)[Neu5Ac(a2-3)Gal(b1-4)GlcNAc(b1-4)]Man(a1-3)[GlcNAc(b1-4)][Neu5Ac(a2-3)Gal(b1-4)GlcNAc(b1-4)Man(a1-6)]Man(b1-4)GlcNAc(b1-4)GlcNAc
Method in brief: as §1

[39] = target: Neu5Ac(a2-3)Gal(b1-4)GlcNAc(b1-2)[Neu5Ac(a2-3)Gal(b1-4)GlcNAc(b1-6)]Man(a1-6)[Neu5Ac(a2-3)Gal(b1-4)GlcNAc(b1-2)Man(a1-3)]Man(b1-4)GlcNAc(b1-4)GlcNAc
Method in brief: as §1

B1: CSA (Cytisus scoparius), P29257 (protein)
chain: SEELSFSFTKFKTDQKNLILQRDALITPTGKLQLTTVENGKPAAYSLGRALYSTPIHIWDKSTGDEASFATFFSFVISDAPNPSTAATDGLAFFLAPADTQPQSAGGYLGLFEKDSSYNSSNQIVAVEFDTYYNSAWDPQTNPHIGIDVNTIKSKKVSSWGFKNGNVATVLITYQPSSKSLVASLVYPSGQTSDKTSYIISANVDLKATVPEWVRIGFSATTGQTDNYIETHDILSWSFKSKLPATKN
With B1 the “glycan array binding signal (z-score)” value [1] was -0.191, the “glycan array binding signal (z-score)” value (Man(a1-3)[Man(a1-6)]Man) was -0.223 and the “glycan array binding signal (z-score)” value [2] was 0.383. The “glycan array binding signal (z-score)” value [3] was -0.151, the “glycan array binding signal (z-score)” value [4] was -0.181 and the “glycan array binding signal (z-score)” value [5] was -0.142. For the same binder, the “glycan array binding signal (z-score)” value [6] was -0.225, the “glycan array binding signal (z-score)” value (Man(a1-6)Man) was -0.112 and the “glycan array binding signal (z-score)” value (Man(b1-4)GlcNAc) was -0.105. The “glycan array binding signal (z-score)” value (MurNAc(b1-4)GlcNAc) was -0.202, the “glycan array binding signal (z-score)” value (Neu5Ac(a2-3)Gal) was -0.162 and the “glycan array binding signal (z-score)” value [7] was -0.043. For the same binder, the “glycan array binding signal (z-score)” value [8] was -0.17, the “glycan array binding signal (z-score)” value [9] was -0.177 and the “glycan array binding signal (z-score)” value [10] was -0.247. The “glycan array binding signal (z-score)” value [11] was -0.182, the “glycan array binding signal (z-score)” value [12] was -0.194 and the “glycan array binding signal (z-score)” value [13] was -0.179. The “glycan array binding signal (z-score)” value [14] was -0.256, the “glycan array binding signal (z-score)” value [15] was -0.231 and the “glycan array binding signal (z-score)” value [16] was -0.028. For the same binder, the “glycan array binding signal (z-score)” value [17] was -0.208, the “glycan array binding signal (z-score)” value [18] was -0.123 and the “glycan array binding signal (z-score)” value [19] was -0.18. For the same binder, the “glycan array binding signal (z-score)” value [20] was -0.204, the “glycan array binding signal (z-score)” value [21] was -0.235 and the “glycan array binding signal (z-score)” value [22] was -0.075. The “glycan array binding signal (z-score)” value [23] was -0.194, the “glycan array binding signal (z-score)” value [24] was -0.157 and the “glycan array binding signal (z-score)” value [25] was -0.155. The “glycan array binding signal (z-score)” value [26] was -0.238, the “glycan array binding signal (z-score)” value [27] was -0.17 and the “glycan array binding signal (z-score)” value [28] was -0.159. The “glycan array binding signal (z-score)” value [29] was -0.146, the “glycan array binding signal (z-score)” value [30] was -0.14 and the “glycan array binding signal (z-score)” value (Neu5Ac(a2-3)Gal(b1-4)Glc) was -0.15. The “glycan array binding signal (z-score)” value [31] was -0.215, the “glycan array binding signal (z-score)” value [32] was -0.182 and the “glycan array binding signal (z-score)” value [33] was -0.209. The “glycan array binding signal (z-score)” value [34] was -0.19, the “glycan array binding signal (z-score)” value [35] was -0.191 and the “glycan array binding signal (z-score)” value [36] was -0.21. The “glycan array binding signal (z-score)” value [37] was -0.214, the “glycan array binding signal (z-score)” value [38] was -0.192 and the “glycan array binding signal (z-score)” value [39] was -0.185.
